From PubChem BioAssay AID1345082 (National Center for Advancing Translational Sciences (NCATS), 2018)
About 4,000 (4.3%) of roughly 94,000 compounds were called active. The shares of active, inactive and inconclusive entries below differ from those in the screen. The call rests on the fitted dose curve; in most records, active means well fitted inhibition curve with a large enough effect; inconclusive means small, poorly fitted or top-dose-only effect; inactive means no such curve, though single readings can be large or run the other way. A potency beside an inconclusive call is a rough fit, not a confirmed value.

Assay: Cytotoxic Profiling in NIH 3T3 Cell Line of Diverse Libraries Using Quantitative High-Throughput Screening; further: nearly all actives have a fitted effect of over 55% in size
Conditions: NIH 3T3 viability, CellTiter-Glo ATP luminescence, 48-72 h; activity change, negative = cytotoxicity: at 96.7 µM (top of the series) unless noted; series mostly up to 96.7 µM
Method in brief: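 Mouse fibroblast NIH 3T3 cells, 400 per well, received compound via pintool and were incubated for 48 or 72 hr prior to CellTiter-Glo ATP luminescence measurement.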
On the % scale 0 is the no-effect control and ±100 the full control effect; potency means the concentration at half of the fitted maximal effect; tags describe the fitted curve by direction and shape.

| SMILES | Potency | activity change, negative = cytotoxicity |
| --- | --- | --- |
| CN(C(=O)c1ccc2cccc(F)c2n1)C1CCCN(CCCc2ccccc2)C1 (configuration not stated) | inconclusive: 79.4 µM [inhibitor, partial curve, poor fit] | – |
| N#Cc1cccc(C(=O)N2CCC(N3C(=O)[C@H]4CN(Cc5ccccc5)C[C@H]4C3=O)CC2)c1 | inconclusive: 63.1 µM [inhibitor, partial curve, poor fit] | – |
| O=C(NCCc1ccccc1F)c1ccc2nc(-c3cccnc3Cl)oc2c1 | – | inactive: -25.8% |
| COc1cccc(C(=O)N2CCC3(CC2)CCN(Cc2cccs2)c2ccccc2O3)c1 | inconclusive: 50.1 µM [inhibitor, partial curve, poor fit] | – |
| OC1CN(Cc2ccccc2)CCN(Cc2cn[nH]c2-c2ccc(Cl)cc2)C1 (configuration not stated) | inconclusive: 50.1 µM [inhibitor, partial curve, poor fit] | – |
| COC[C@@H]1CCCN1Cc1cn(Cc2ccccc2)nc1-c1cc2ccccc2o1 | inconclusive: 50.1 µM [inhibitor, partial curve, poor fit] | – |
| CC(C)(C)N1CC(C(=O)NCCCc2ccccc2F)CC1=O (configuration not stated) | inconclusive: 44.7 µM [inhibitor, partial curve] | – |
| Cc1nsc(NC(=O)NCc2ccccc2OC(F)(F)F)n1 | inconclusive: 50.1 µM [inhibitor, partial curve, poor fit] | – |
| N#Cc1ccccc1CN1CCCCCCNC(=O)[C@@H]2C[C@@H](C(=O)N3CCc4ccccc4C3)C[C@@H]21 | inconclusive: 50.1 µM [inhibitor, partial curve, poor fit] | – |
| COc1cccc(N2C(=O)NC(=NC3CCCC3)C23CCN(Cc2cccnc2)C3)c1 (configuration not stated) | inconclusive: 50.1 µM [inhibitor, partial curve, poor fit] | – |
| CCN1c2cc(C(=O)NCc3ccc(Br)cc3)ccc2C(=O)N2CCCCC21 (configuration not stated) | inconclusive: 70.8 µM [inhibitor, partial curve, poor fit] | – |
| Cc1cc(C)n(CCCNC(=O)c2cc(COc3ccc4sc(C)nc4c3)on2)n1 | – | inactive: 1.17% |
| O=C(NCc1ccccn1)c1ccc2nc(-c3cccnc3Cl)oc2c1 | inconclusive: 39.8 µM [inhibitor, partial curve, poor fit] | – |
| Cc1ccsc1C(=O)N1CCC(c2n[nH]c(=O)n2Cc2ccc(F)cc2)CC1 | inconclusive: 44.7 µM [inhibitor, partial curve, poor fit] | – |
| CCCCn1c(=O)c(C(=O)N2CCN(C(=O)c3ccccc3F)CC2)nc2cccnc21 | inconclusive: 79.4 µM [inhibitor, partial curve, poor fit] | – |
| CCOCC(=O)N[C@@H]1CN(Cc2ccccc2)C[C@H]1CN(C)C | – | inactive: -7.84% |
| COc1cccc(CC(=O)Nc2ccc3c(c2)CN(Cc2ccccc2)C(=O)C(C)O3)c1 (configuration not stated) | inconclusive: 44.7 µM [inhibitor, partial curve, poor fit] | – |
| CCCc1ccc([S+](=O)([O-])N2CCC3(CC2)[C@H](C(=O)OCC)[C@@H](O)C(=O)N3C)cc1 | inconclusive: 50.1 µM [inhibitor, partial curve, poor fit] | – |
| O=C(c1ccsc1)N1CC[C@@H]2COCCN(Cc3ccncc3)[C@@H]2C1 | – | inactive: -32.6% |
| Cc1ccc(CNC(=O)C2CCN(C(=O)c3nnn4c3COC(c3ccc(C)cc3)C4)CC2)cc1 (configuration not stated) | – | inactive: 2.29% |
| COCCn1c(=O)c2c(n1Cc1ccccc1)CN(Cc1ccc(C(C)C)cc1)CC2 | inconclusive: 89.1 µM [inhibitor, partial curve] | – |

| SMILES | Potency | activity change, negative = cytotoxicity |
| --- | --- | --- |
| CCc1noc([C@@H]2CC(F)(F)CN2C(=O)C2CCOCC2)n1 | – | inactive: 1.95% |
| CC(=O)N1CCC(NC[C@@H]2C=C(C)[C@H](Cc3nc4ccc(F)cc4[nH]3)C[C@H]2C(C)C)CC1 | active: 79.4 µM | – |
| Cc1ccc(C(=O)N[C@H]2CO[C@H]3[C@@H]2OC[C@@H]3n2nnnc2Oc2ccccc2)cc1 | inconclusive: 12.6 µM [inhibitor, full curve] | – |
| CN(C)C[C@@H]1CN(c2ccccn2)C[C@H]1NC(=O)c1cnco1 | – | inactive: -9.03% |
| COCCNC(=O)C1CCCN(Cc2cccc(-c3ccccc3OC)c2)C1 (configuration not stated) | inconclusive: 44.7 µM [inhibitor, partial curve] | – |
| O=C(C1CCCC1)N1CC2(CCCN(Cc3ccccn3)C2)Cc2ccccc21 (configuration not stated) | inconclusive: 50.1 µM [inhibitor, partial curve, poor fit] | – |
| CN1CCC(OC2CCN(S(=O)(=O)c3ccc(F)cc3)CC2)CC1 | – | inactive: -12.8% |
| Cc1ccc(-c2ccc(CN3CCCC(NC(=O)Cc4ccc(F)cc4)C3)cc2)cc1Cl (configuration not stated) | inconclusive: 28.2 µM [inhibitor, partial curve, poor fit] | – |
| Cc1ccc(C(=O)N2CCC(N3CC4(CCCC4)C3c3ccccc3)CC2)s1 (configuration not stated) | inconclusive: 50.1 µM [inhibitor, partial curve, poor fit] | – |
| CCOc1cccc(CNC(=O)C2CCN(C(=O)c3ncn4c3COC(c3ccccc3)C4)CC2)c1 (configuration not stated) | – | inactive: -2.01% |
| COc1ccc(C2Cn3nnc(C(=O)N4CCN(C(=O)Cc5ccc(Cl)cc5)CC4)c3CO2)cc1 (configuration not stated) | – | inactive: -19% |
| O=C(c1ccc2c(c1)OCO2)N1CCN2C(=O)NC[C@H]2C1 | – | inactive: -16.5% [at 230 µM] |
| O=c1c2nc(-c3cccc(O)c3)ccc2ncn1Cc1ccccn1 | active: 20 µM | – |
| CN1CCC2(C1)CN(CC1CC1)c1ccc(C(=O)NC3CC3)cc12 (configuration not stated) | inconclusive: 56.2 µM [inhibitor, partial curve, poor fit] | – |
| O=C1NC2(CCCN(Cc3ccsc3)C2)COc2ccccc21 (configuration not stated) | active: 39.8 µM | – |
| COCCN1CCOc2nc(-c3cc4ccccc4o3)ncc2C1=O | inconclusive: 89.1 µM [inhibitor, partial curve, poor fit] | – |
| C#CCN(C)C(=O)C[C@@H]1c2nc(-c3cccnc3)sc2C[C@@H]2[C@](C)(CO)[C@H](O)CC[C@]21C | inconclusive: 56.2 µM [inhibitor, partial curve, poor fit] | – |
| COc1ccc(NC(=O)C2CN(c3ccnc4ccnn34)C2)cc1 | inconclusive: 35.5 µM [inhibitor, partial curve, poor fit] | – |
| CC(C)CCN1CCC(O)(c2csc(CN3CCc4ccccc4C3)n2)CC1 | active: 100 µM | – |
| COc1ccccc1N1CCCc2ncc(C(=O)N(C)Cc3ccccc3)cc21 | inconclusive: 100 µM [inhibitor, partial curve] | – |
| O=C1[C@@H]2C[C@@H](CN2C2CCCC2)Oc2ccccc2N1Cc1ccccc1 | inconclusive: 89.1 µM [inhibitor, partial curve, poor fit] | – |

| SMILES | Potency | activity change, negative = cytotoxicity |
| --- | --- | --- |
| CCn1cc(Cl)c(C(=O)N2CCCn3cc(-c4ccccc4)nc32)n1 | – | inactive: -11.8% |
| CCCCc1ccc(NC(=O)N2CCCC2c2nncn2C2CCCC2)cc1 (configuration not stated) | inconclusive: 35.5 µM [inhibitor, single point] | – |
| Cc1cc(C)cc(-c2ccc(C=O)cc2)c1 | inconclusive: 126 µM [inhibitor, partial curve, poor fit] | – |
| O=[S+]([O-])(c1ccccc1)N1CC2(COCCN(Cc3ccsc3)C2)C1 | inconclusive: 89.1 µM [inhibitor, partial curve] | – |
| O=C(NCCc1ccc(Cl)cc1)C1CCN(c2nccc(Nc3ccccc3Cl)n2)CC1 | inconclusive: 28.2 µM [inhibitor, partial curve, poor fit] | – |
| Cc1ccc(C(=O)NCCn2cccc2-c2nc(-c3ccc4c(c3)OCO4)no2)cc1C | inconclusive: 35.5 µM [inhibitor, partial curve, poor fit] | – |
| COc1ccc(F)cc1CN1CCCC(CO)(CC2CC2)C1 (configuration not stated) | inconclusive: 50.1 µM [inhibitor, partial curve, poor fit] | – |
| Cc1nnn2c(C(=O)NCc3ccc(Cl)cc3)cccc12 | active: 35.5 µM | – |
| CN1CCC(N(Cc2ccccc2)[C@@H]2C[C@@H]3CO[C@H](c4ccccc4)C[C@@H]3C2)CC1 | active: 14.1 µM | – |
| CC[C@H]1CN(C(=O)NC(C)C)CC[C@H]1CC(=O)N(C)CCC#N | – | inactive: -1.61% [at 174 µM] |
| O=C(c1ccccc1)N1CC2(CCCN2Cc2cccnc2)Cc2ccccc21 (configuration not stated) | inconclusive: 70.8 µM [inhibitor, single point] | – |
| COc1ccc(-c2cc(C(=O)N(C)c3ccccc3)c3cnn(C)c3n2)cc1 | inconclusive: 35.5 µM [inhibitor, partial curve, poor fit] | – |
| CC1(C(=O)NCc2cccnc2)CCCc2cnc(Nc3ccccc3)nc21 (configuration not stated) | inconclusive: 56.2 µM [inhibitor, partial curve, poor fit] | – |
| O=C(NCc1cnn(Cc2ccccc2)c1)c1ccc2oc(-c3cccc(F)c3)nc2c1 | inconclusive: 5.01 µM [inhibitor, full curve, poor fit] | – |
| O=C(NCc1ccccc1Cl)C1CCCN(Cc2cccc(-c3ccc(F)cc3F)c2)C1 (configuration not stated) | inconclusive: 39.8 µM [inhibitor, partial curve, poor fit] | – |
| O=C(Cc1cccs1)N1CCCn2cc(-c3ccccc3)nc21 | – | inactive: 1.63% |
| Cc1ccsc1C(=O)N1CCC(c2nc(CCOc3ccc(F)cc3)no2)C1 (configuration not stated) | inconclusive: 44.7 µM [inhibitor, partial curve, poor fit] | – |
| CCCn1cc(CNC(=O)c2ccc(CC3CCCNC3)cc2)cn1 (configuration not stated) | inconclusive: 89.1 µM [inhibitor, single point] | – |
| Cc1noc(C)c1CCCNC(=O)c1ccc(NC[C@H]2C[C@H]3C=C[C@H]2C32CC2)nc1 | inconclusive: 89.1 µM [inhibitor, single point] | – |
| CCN(Cc1cnn(CC)c1)C(=O)CN1CC2CC(C1)[C@H]1CCCC(=O)N1C2 (some centres not stated) | – | inactive: 2.6% |
